The source of these data is article PMC7819943, “Rice protein-binding microarrays: a tool to detect cis-acting elements near promoter regions in rice”.

The list shows a part of the results.

This test has as its target T1, OsWOX13 (Oryza sativa, UniProt Q5QMM3 1-267).
T1 sequence: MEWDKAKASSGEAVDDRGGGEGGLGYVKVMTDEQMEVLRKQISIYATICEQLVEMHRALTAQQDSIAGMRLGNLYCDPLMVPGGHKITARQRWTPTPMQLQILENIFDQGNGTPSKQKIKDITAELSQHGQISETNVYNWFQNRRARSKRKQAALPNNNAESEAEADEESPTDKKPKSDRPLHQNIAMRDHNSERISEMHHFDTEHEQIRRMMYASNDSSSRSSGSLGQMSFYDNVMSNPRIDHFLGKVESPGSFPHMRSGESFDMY
In words: protein-binding microarray (RPBM); PBS, 2% BSA, 51.3 ng/ul salmon testes DNA, 50 uM zinc acetate, 200 nM TF, 25 C, 1 h; high values mean tight binding. Conditions: protein: recombinant; tags: N-terminal polyhistidine and DsRed monomer fusion (pET32a); label: CyDye5-dUTP incorporated in the synthesized complementary strand; 3' TTTTT single-stranded linker to array surface; dsDNA, one strand shown. Summed up:
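Per-feature fluorescence intensity (arbitrary units), read on an Axon 4000B scanner, is the binding signal. Transcription factors carrying an N-terminal polyhistidine tag and DsRed fusion were expressed in E. coli BL21-CodonPlus and purified on Ni–NTA. A custom Agilent array, made double-stranded by primer extension with Cy5-dUTP and blocked with 2% BSA, was incubated with 200 nM protein in PBS, 2% BSA, salmon testes DNA and 50 µM zinc acetate at 25 °C for 1 h and then washed.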
As to “CACCTTAATTACATGGTGGCTTAAGCTCCAGGTGGCCCGACGGAGTCACCTAGTGCAG”, the binding signal is 9900 fluorescence intensity (a.u.).
Consider “ATCTAGACTTAAAATTATAAGTCATGGCATTCACAGAGATCGGAGTCACCTAGTGCAG”, for which the binding signal was 3820 fluorescence intensity (a.u.).
As to “GGGGATTGAGGAAAGGAGGCAGCGGCAGAAGAAAGGGCCTCGGAGTCACCTAGTGCAG”, the binding signal is 4030 fluorescence intensity (a.u.).
Consider “TCATGATGGTTTTGAAATTATTCTGACACGAAAGTTTGTGCGGAGTCACCTAGTGCAG”, for which the binding signal was 4240 fluorescence intensity (a.u.).
For the sequence “AGCAAATTTTGCCTAAACTTTATAGTATTTGCTCTAAGTACGGAGTCACCTAGTGCAG”, the binding signal was 3290 fluorescence intensity (a.u.).
Turning to “GTGGATATCAATCTGTATATACTAGATCCCCACCCACCATCGGAGTCACCTAGTGCAG”, the binding signal is 6630 fluorescence intensity (a.u.).
As to “TTACTTTTCAATTATTACATTATGATGGATCGGAGTTATTCGGAGTCACCTAGTGCAG”, the binding signal was 15500 fluorescence intensity (a.u.).
With “TTTGATGGATTTCGATGACTACTGTAGCAACAAGGGATAACGGAGTCACCTAGTGCAG”, the binding signal is 14300 fluorescence intensity (a.u.).
As for “GGTAACTATTATTGTCACCGATTATTATTTGGTTCATATGCGGAGTCACCTAGTGCAG”, the binding signal was 3700 fluorescence intensity (a.u.).
To “AACAAATTTAACAATATAGTAACTCTAACTCCTAGCTCCCCGGAGTCACCTAGTGCAG” belongs 14300 fluorescence intensity (a.u.); to “ATCCTAATGAGCTCCTAAATTAATAAGATTATCCATGTTGCGGAGTCACCTAGTGCAG”, 12700 fluorescence intensity (a.u.); to “GTGTAATTAATACAAAGATAAAATAATAAGAATGTTTTCTCGGAGTCACCTAGTGCAG”, 9350 fluorescence intensity (a.u.).
Regarding “CCACCTGATTTGCTCTTTGGAAACATAATGTATGCCTGCTCGGAGTCACCTAGTGCAG”, the binding signal was 26600 fluorescence intensity (a.u.).
The value for “TTCGACATAATACATGTGATTGCAAACTTGTGAGTCACACCGGAGTCACCTAGTGCAG” was 14900 fluorescence intensity (a.u.); that for “GTTCGTTAAATTTTAGAAGTGATTTGGCACGATTCATATACGGAGTCACCTAGTGCAG” was 4160 fluorescence intensity (a.u.).
As for “TTATGATTTCAAGGTTAATGCTGCAGTTTCAAACAAGTTACGGAGTCACCTAGTGCAG”, the binding signal is 3480 fluorescence intensity (a.u.).
In the case of “TATAATCAAATTGCCATGCTTCAATTTTCAACGATGTTTTCGGAGTCACCTAGTGCAG”, the binding signal was 4820 fluorescence intensity (a.u.).
In the case of “TCTCTAATTACTATTATTTTCTAAATCTATTTGCATATGACGGAGTCACCTAGTGCAG”, the binding signal was 21200 fluorescence intensity (a.u.).
In the case of “CTTAACTGGTTATGTTTCCTGTGATGTAACTAGCTCACTTCGGAGTCACCTAGTGCAG”, the binding signal was 24200 fluorescence intensity (a.u.).
On to “AGCACGTAATTATATATGTTCTCAGATGATGTGATAGGGACGGAGTCACCTAGTGCAG”, for which the binding signal is 21900 fluorescence intensity (a.u.).
On to “TCAGAATCGTGATTGTGTGAAGTACTAAGAATAGATCGGCCGGAGTCACCTAGTGCAG”, for which the binding signal is 5120 fluorescence intensity (a.u.).
On to “ATATTTTGACAGTTAATTATTAGGATCAATATAAAATAATCGGAGTCACCTAGTGCAG”, for which the binding signal was 15800 fluorescence intensity (a.u.).
For the sequence “ATGACTGGCAAACAACCGTCAGTCGAGCAACTGCCATCCACGGAGTCACCTAGTGCAG”, the binding signal is 3750 fluorescence intensity (a.u.).
As for “GTACTGGATTGAATTTGAAGATGTTTATTTGAGCGTATATCGGAGTCACCTAGTGCAG”, the binding signal was 5520 fluorescence intensity (a.u.).
For “AACTAATGAAAACAGAGTGATATTTCTGCTCTTCTTGCTACGGAGTCACCTAGTGCAG”, the binding signal was 4610 fluorescence intensity (a.u.).
Consider “TCTCTCTTCCATATAAATTTATAGTTGACTTACTATTATCCGGAGTCACCTAGTGCAG”, for which the binding signal was 3450 fluorescence intensity (a.u.).
Regarding “GATAATTTAGCAATAAGGAATTGAAATCATAGTACAAAGTCGGAGTCACCTAGTGCAG”, the binding signal was 11400 fluorescence intensity (a.u.).
The value for “GTATAATTGACAGATGAATTTCACGCAAGAGTATATTGAGCGGAGTCACCTAGTGCAG” was 55900 fluorescence intensity (a.u.); that for “TTCCAGTTTCTATACTTAATTGCGCACGGTTGAATACATACGGAGTCACCTAGTGCAG” was 7840 fluorescence intensity (a.u.); that for “TAGGAATTTCTCTAATTTATTAAAGCGCCACGTGTCAGTTCGGAGTCACCTAGTGCAG” was 4760 fluorescence intensity (a.u.).
To “TATAGATTGATGCCAAATCTAACCTAAGTTATTAGTTATTCGGAGTCACCTAGTGCAG” belongs 24900 fluorescence intensity (a.u.); to “GATGATTTGATTAGATTAGGTTAGGTTTGTTATTCACCTACGGAGTCACCTAGTGCAG”, 65500 fluorescence intensity (a.u.); to “AATAATTATTTCTTGGTCTTTGGATTAAGGGTGATTGTGCCGGAGTCACCTAGTGCAG”, 26600 fluorescence intensity (a.u.).
The value for “GGTAGTCAATTATAGTGGATACAAATATCCTAGCTGGTTTCGGAGTCACCTAGTGCAG” was 6080 fluorescence intensity (a.u.); that for “TCAGATTAGCATTTTGGCACATGAATCTTGGCCGTCAATACGGAGTCACCTAGTGCAG” was 4000 fluorescence intensity (a.u.).
On to “ATGGGATTGAAAACGATCAAATTAATATGTACAGTACTGACGGAGTCACCTAGTGCAG”, for which the binding signal was 24800 fluorescence intensity (a.u.).
As for “GTGGTTATTGGATTGGAACCGACGGCGACTAGCCTGAGAGCGGAGTCACCTAGTGCAG”, the binding signal is 3220 fluorescence intensity (a.u.).
Take “CATCATAATGATGTTGACATGAAATCATAAATACTTTCTACGGAGTCACCTAGTGCAG”: the binding signal is 5220 fluorescence intensity (a.u.).
The value for “GTTAATTAATTTCGTGTGCGAACTAAAACGACTAATCCGACGGAGTCACCTAGTGCAG” was 22700 fluorescence intensity (a.u.); that for “CTTAATTAATTATAATCTCTAGTTAGTACAATTAATTAGCCGGAGTCACCTAGTGCAG” was 49100 fluorescence intensity (a.u.).
In the case of “GGAACAATTATAGATTTACCACTTATTCTAATCGGTACCGCGGAGTCACCTAGTGCAG”, the binding signal is 7320 fluorescence intensity (a.u.).
Consider “ATACCCGATTTAAATTTGAATTTGAATTATATTTAAATTCCGGAGTCACCTAGTGCAG”, for which the binding signal is 5060 fluorescence intensity (a.u.).
